# Data: paper PMC10668032
# Some of the results follow. At the low end of the ranking the order means little.
# Biological target: SIX1-Q177R homeodomain (UniProt Q15475)
# Assay: universal protein binding microarray
# Settings: Universal all-10-mer PBM (8x60K, AMADID 030236), 300 nM GST-tagged protein, Alexa Fluor 488 anti-GST; buffer, salt, pH and temperature not stated; high values mean tight binding; most listed sequences are background and not binding sites; double strand, one strand shown
row,Sequence,binding signal [E-score]
1,CGGGTAAG,0.122
2,AGACGATC,0.0546
3,GAAGCCAA,-0.162
4,AAAGTAAG,-0.189
5,GACACCGA,0.486
6,CCTACCAC,0.103
7,CAATGAGA,-0.134
8,AATAGCAG,-0.0433
9,ACCTGGAT,-0.0312
10,TTGACAAA,-0.208
11,TATGACAA,-0.0361
12,CAGCTCTC,-0.217
13,ATACAAAC,-0.00168
14,GCGCCTAC,-0.00798
15,ATAAATAG,-0.125
16,CAGGAGAA,-0.179
17,CAAATAAA,-0.216
18,CCCAAACA,0.208
19,GTAGACTA,-0.176
20,AGGCGTAA,0.02
21,CTCAATGA,-0.215

row,Sequence,binding signal [E-score]
1,AAGGACAG,-0.0924
2,ATAGTCCG,-0.17
3,GAACGAAC,0.0128
4,GATCGGCA,-0.12
5,CGTCCACG,-0.186
6,CGGCGGAC,0.142
7,AGCATCCT,-0.309
8,ATCCTCCA,0.0133
9,GTTTCTCA,0.103
10,CTGTCGCA,-0.0797
11,CGAAGAAA,-0.114
12,AACGTCGA,-0.183
13,ACGATCTA,0.0591
14,CAAGCAGG,-0.122
15,ACCCCCAT,0.272
16,AACCGACA,0.195
17,CTACTGAC,-0.00274
18,ACATGCGA,-0.115
19,AACAGACG,-0.168
20,CATACGGA,-0.156
21,GACTGCGC,-0.138

row,Sequence,binding signal [E-score]
1,CTAGTGGC,-0.12
2,AAAGGCCT,-0.187
3,ATCAGCGG,-0.0432
4,CGGCCTGC,-0.178
5,CAAGGCGG,0.0319
6,CAGTTTGC,-0.139
7,ATAACTCG,0.0367
8,CATCGAAG,-0.152
9,CGCTTGAG,-0.282
10,GGGTCGTA,0.148
11,CGGTGGAG,0.0117
12,AAAATTAG,-0.0966
13,GATCTAAC,-0.0373
14,CACTTGAC,0.258
15,CCATCGCC,0.0361
16,ATGTAAAG,-0.221
17,ACCACTAC,0.178
18,GCCTAAAA,-0.273
19,CAACTTCC,-0.215
20,CGTTGGAA,0.0366
21,CTACCACA,0.154

row,Sequence,binding signal [E-score]
1,AACATCTC,-0.181
2,GGTTATCA,0.0949
3,CAGTCCAC,-0.165
4,CATAGACG,-0.118
5,ACCTGCCG,0.0491
6,ACATAAAT,-0.0422
7,AATATCCC,0.00434
8,CCCGCGAG,0.109
9,GGCCGGTA,0.0744
10,AAATTGTA,-0.218
11,ACTGCCAC,-0.118
12,CGTGTACA,0.427
13,ACGTCCAC,-0.268
14,ACATTGTG,0.0609
15,ATTGTCAG,0.143
16,AGTGTGTG,0.197
17,AACTTTGC,-0.139
18,AAAAGATG,-0.304
19,ATGTGATA,-0.0133
